# Measured values from the supplement of paper PMC8728848.
# Some of the results follow.
# Assays:
# Experiment in all cases: glycan array binding signal (z-score within array); higher = stronger binding
# Conditions in all cases: glycan notation: IUPAC condensed, linker removed; mutation: R144S
# [1] = biological target: GlcNAc(a1-4)Gal(b1-4)GalNAc
# How it was run: (§1)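 Glycan array binding is given as a within-array Z-score, which can be read as non-binding when negative. The arrays, 3228 of them, came from the Consortium for Functional Glycomics database and were retained only where the protein sequence was available. Z-scores were averaged across arrays of the same protein sequence at different concentrations or buffers and across linkers.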
# [2] = biological target: GlcNAc(a1-4)Gal(b1-4)GlcNAc
# How it was run: as §1
# [3] = biological target: GlcNAc(a1-4)Gal(b1-4)GlcNAc(b1-3)Gal(b1-4)Glc
# How it was run: as §1
# [4] = biological target: GlcNAc(a1-4)Gal(b1-4)GlcNAc(b1-3)Gal(b1-4)GlcNAc
# How it was run: as §1
# [5] = biological target: GlcNAc(a1-4)Gal(b1-4)GlcNAc(b1-3)Gal(b1-4)GlcNAc(b1-3)Gal(b1-4)GlcNAc
# How it was run: as §1
# [6] = biological target: GlcNAc(a1-4)Gal(b1-4)GlcNAc(b1-3)Gal(b1-4)[Fuc(a1-3)]GlcNAc(b1-3)Gal(b1-4)[Fuc(a1-3)]GlcNAc
# How it was run: as §1
# [7] = biological target: GlcNAc(a1-6)Gal(b1-4)GlcNAc
# How it was run: as §1
# [8] = biological target: GlcNAc(b1-2)Gal(b1-3)GalNAc
# How it was run: as §1
# [9] = biological target: GlcNAc(b1-2)Man(a1-3)[GlcNAc(b1-2)Man(a1-6)]Man(b1-4)GlcNAc(b1-4)GlcNAc
# How it was run: as §1
# [10] = biological target: GlcNAc(b1-2)Man(a1-3)[GlcNAc(b1-2)Man(a1-6)]Man(b1-4)GlcNAc(b1-4)[Fuc(a1-6)]GlcNAc
# How it was run: as §1
# [11] = biological target: GlcNAc(b1-2)[GlcNAc(b1-4)]Man(a1-3)[GlcNAc(b1-2)Man(a1-6)]Man(b1-4)GlcNAc(b1-4)GlcNAc
# How it was run: as §1
# [12] = biological target: GlcNAc(b1-3)Gal
# How it was run: as §1
# [13] = biological target: GlcNAc(b1-3)Gal(b1-3)GalNAc
# How it was run: as §1
# [14] = biological target: GlcNAc(b1-3)Gal(b1-4)Glc
# How it was run: as §1
# [15] = biological target: GlcNAc(b1-3)Gal(b1-4)GlcNAc
# How it was run: as §1
# [16] = biological target: GlcNAc(b1-3)Gal(b1-4)GlcNAc(b1-3)Gal(b1-4)GlcNAc
# How it was run: as §1
# [17] = biological target: GlcNAc(b1-3)GalNAc
# How it was run: as §1
# [18] = biological target: GlcNAc(b1-3)Man
# How it was run: as §1
# [19] = biological target: GlcNAc(b1-3)[GlcNAc(b1-4)][GlcNAc(b1-6)]GlcNAc
# How it was run: as §1
# [20] = biological target: GlcNAc(b1-3)[GlcNAc(b1-6)]Gal(b1-4)GlcNAc
# How it was run: as §1
# [21] = biological target: GlcNAc(b1-3)[GlcNAc(b1-6)]GalNAc
# How it was run: as §1
# [22] = biological target: GlcNAc(b1-4)Gal(b1-4)GlcNAc
# How it was run: as §1
# [23] = biological target: GlcNAc(b1-4)GlcNAc
# How it was run: as §1
# [24] = biological target: GlcNAc(b1-4)GlcNAc(b1-4)GlcNAc
# How it was run: as §1
# [25] = biological target: GlcNAc(b1-4)GlcNAc(b1-4)GlcNAc(b1-4)GlcNAc(b1-4)GlcNAc
# How it was run: as §1
# [26] = biological target: GlcNAc(b1-4)GlcNAc(b1-4)GlcNAc(b1-4)GlcNAc(b1-4)GlcNAc(b1-4)GlcNAc
# How it was run: as §1
# [27] = biological target: GlcNAc(b1-4)[GlcNAc(b1-6)]GalNAc
# How it was run: as §1
# [28] = biological target: GlcNAc(b1-6)Gal(b1-4)GlcNAc
# How it was run: as §1
# [29] = biological target: GlcNAc(b1-6)GalNAc
# How it was run: as §1
# [30] = biological target: GlcNAc3Prop(b1-4)GlcNAc
# How it was run: as §1
# [31] = biological target: GlcNAc6S(b1-3)Gal(b1-4)GlcNAc
# How it was run: as §1
# [32] = biological target: Kdn(a2-3)Gal(b1-3)GalNAc
# How it was run: as §1
# [33] = biological target: Kdn(a2-3)Gal(b1-3)GlcNAc
# How it was run: as §1
# [34] = biological target: Kdn(a2-3)Gal(b1-4)Glc
# How it was run: as §1
# [35] = biological target: Kdn(a2-3)Gal(b1-4)GlcNAc
# How it was run: as §1
# [36] = biological target: Kdn(a2-3)Gal(b1-4)[Fuc(a1-3)]GlcNAc
# How it was run: as §1
# [37] = biological target: Kdn(a2-6)Gal(b1-4)GlcNAc
# How it was run: as §1
# [38] = biological target: Man(a1-2)Man(a1-2)Man(a1-3)Man
# How it was run: as §1
# [39] = biological target: Man(a1-2)Man(a1-2)Man(a1-6)[Man(a1-3)]Man
# How it was run: as §1
# [40] = biological target: Man(a1-2)Man(a1-3)Man
# How it was run: as §1
# [41] = biological target: Man(a1-2)Man(a1-3)[Man(a1-2)Man(a1-6)]Man
# How it was run: as §1
# [42] = biological target: Man(a1-2)Man(a1-3)[Man(a1-2)Man(a1-6)]Man(a1-6)[Man(a1-2)Man(a1-2)Man(a1-3)]Man
# How it was run: as §1
# [43] = biological target: Man(a1-2)Man(a1-3)[Man(a1-2)Man(a1-6)]Man(a1-6)[Man(a1-2)Man(a1-2)Man(a1-3)]Man(b1-4)GlcNAc(b1-4)GlcNAc
# How it was run: as §1
# [44] = biological target: Man(a1-2)Man(a1-3)[Man(a1-6)]Man(a1-6)[Man(a1-2)Man(a1-3)]Man(b1-4)GlcNAc(b1-4)GlcNAc
# How it was run: as §1
# [45] = biological target: Man(a1-2)Man(a1-6)[Man(a1-3)]Man(a1-6)[Man(a1-2)Man(a1-2)Man(a1-3)]Man
# How it was run: as §1
binder,measurement,setting,value
"Gal 3 (Homo sapiens), P17931 (protein) MADNFSLHDALSGSGNPNPQGWPGAWGNQPAGAGGYPGASYPGAYPGQAPPGAYPGQAPPGAYHGAPGAYPGAPAPGVYPGPPSGPGAYPSSGQPSAPGAYPATGPYGAPAGPLIVPYNLPLPGGVVPRMLITILGTVKPNANSILDFQRGNDVAFHFNPRFNENNRRVIVCNTKLDNNWGREERQSVFPFESGKPFKIQVLVEPDHFKVAVNDAHLLQYNHRVKKLNEISKLGISGDIDLTSASYTMI",glycan array binding signal (z-score),[1],-0.349
same,glycan array binding signal (z-score),[2],-0.355
same,glycan array binding signal (z-score),[3],-0.356
same,glycan array binding signal (z-score),[4],0.351
same,glycan array binding signal (z-score),[5],1.56
same,glycan array binding signal (z-score),[6],-0.34
same,glycan array binding signal (z-score),[7],-0.347
same,glycan array binding signal (z-score),[8],-0.364
same,glycan array binding signal (z-score),[9],-0.358
same,glycan array binding signal (z-score),[10],-0.361
same,glycan array binding signal (z-score),[11],-0.341
same,glycan array binding signal (z-score),[12],-0.364
same,glycan array binding signal (z-score),[13],-0.356
same,glycan array binding signal (z-score),[14],-0.36
same,glycan array binding signal (z-score),[15],-0.358
same,glycan array binding signal (z-score),[16],1.29
same,glycan array binding signal (z-score),[17],-0.357
same,glycan array binding signal (z-score),[18],-0.359
same,glycan array binding signal (z-score),[19],-0.358
same,glycan array binding signal (z-score),[20],-0.352
same,glycan array binding signal (z-score),[21],-0.361
same,glycan array binding signal (z-score),[22],-0.364
same,glycan array binding signal (z-score),[23],-0.359
same,glycan array binding signal (z-score),[24],-0.362
same,glycan array binding signal (z-score),[25],-0.363
same,glycan array binding signal (z-score),[26],-0.326
same,glycan array binding signal (z-score),[27],-0.359
same,glycan array binding signal (z-score),[28],-0.361
same,glycan array binding signal (z-score),[29],-0.36
same,glycan array binding signal (z-score),[30],-0.361
same,glycan array binding signal (z-score),[31],-0.352
same,glycan array binding signal (z-score),[32],-0.361
same,glycan array binding signal (z-score),[33],-0.358
same,glycan array binding signal (z-score),[34],-0.361
same,glycan array binding signal (z-score),[35],-0.357
same,glycan array binding signal (z-score),[36],-0.352
same,glycan array binding signal (z-score),[37],-0.361
same,glycan array binding signal (z-score),[38],-0.356
same,glycan array binding signal (z-score),[39],-0.356
same,glycan array binding signal (z-score),[40],-0.348
same,glycan array binding signal (z-score),[41],-0.354
same,glycan array binding signal (z-score),[42],-0.358
same,glycan array binding signal (z-score),[43],-0.349
same,glycan array binding signal (z-score),[44],-0.356
same,glycan array binding signal (z-score),[45],-0.356
